The source of these data is paper PMC10668032.

The other results are listed elsewhere or left out. At the low end of the ranking the order means little.

The target in this assay is SIX1-Q177R homeodomain (UniProt Q15475). Nature of the assay: universal protein binding microarray. Particulars: Universal all-10-mer PBM (8x60K, AMADID 030236), 300 nM GST-tagged protein, Alexa Fluor 488 anti-GST; buffer, salt, pH and temperature not stated; high values mean tight binding; most listed sequences are background and not binding sites; double strand, one strand shown.
Consider CCCTAGGC, for which the binding signal is -0.0494 E-score.

With ATACGTAG, the binding signal is -0.0801 E-score.

Take GGCTAGAC: the binding signal was -0.00462 E-score.

Turning to ATACTAGA, the binding signal was -0.0264 E-score.

As to CTGAGTGC, the binding signal is -0.0169 E-score.

Take GGCATAAA: the binding signal came out at 0.0203 E-score.

Consider TACGCCTA, for which the binding signal came to 0.0943 E-score.

Regarding ACTGGTGC, the binding signal stood at 0.297 E-score.

As to CCCGTGAC, the binding signal stood at 0.155 E-score.

Take AACACGCT: the binding signal came to 0.379 E-score.

As to AAGAGAGC, the binding signal was -0.188 E-score.

In the case of ATCACTCC, the binding signal stood at 0.0332 E-score.

Take TAGGAACA: the binding signal was 0.115 E-score.

As for CTTTTAGC, the binding signal was -0.151 E-score.

Take TAGAAAAA: the binding signal was -0.114 E-score.

Consider AGCAACCT, for which the binding signal is -0.141 E-score.

AGTTAGTG: the binding signal was determined as 0.206 E-score.

As for AGTTAGCG, the binding signal was -0.152 E-score.

For CTATCGCC, the binding signal is -0.274 E-score.

Consider CCCTCACA, for which the binding signal was 0.121 E-score.

For AGTGCCCA, the binding signal was -0.00924 E-score.

On to TAATGGAA, for which the binding signal is -0.0578 E-score.

For ATGGAATG, the binding signal was -0.11 E-score.

For AGACGGAG, the binding signal is -0.0366 E-score.

On to AAAACCCT, for which the binding signal was found to be 0.0621 E-score.

As for AAGCTTCG, the binding signal was -0.225 E-score.

For the sequence GCCGTCAC, the binding signal was -0.153 E-score.

Turning to TAGATATA, the binding signal worked out at 0.0184 E-score.

Regarding GGAAATAC, the binding signal was -0.091 E-score.

TACTCATA: the binding signal is -0.0612 E-score.

On to GAAGCGGA, for which the binding signal came to 0.029 E-score.

For ACGGCGTG, the binding signal was 0.125 E-score.

For the sequence CGCACGGC, the binding signal was 0.0935 E-score.

Take CTGGGCAC: the binding signal was -0.0841 E-score.

In the case of ACGGCTAA, the binding signal was -0.158 E-score.

CAATATAC: the binding signal was -0.156 E-score.

For the sequence CCGGCGAG, the binding signal was -0.1 E-score.

For GAACTTCA, the binding signal was -0.206 E-score.

AAGATGAC: the binding signal is -0.0139 E-score.

As for GCCCGCGC, the binding signal is 0.0638 E-score.

AATCTTCA: the binding signal was -0.298 E-score.

For CTCAACCC, the binding signal worked out at 0.0176 E-score.

With CCCCACGA, the binding signal came to 0.153 E-score.

Consider AAAAGTCT, for which the binding signal is -0.388 E-score.

As to AATTGCGT, the binding signal is -0.0867 E-score.

Regarding AGTTGGGC, the binding signal was -0.121 E-score.

Regarding AGAACATC, the binding signal was -0.238 E-score.

With CAATTCTA, the binding signal is -0.138 E-score.

For CGGGCTTA, the binding signal is -0.0494 E-score.

For ATTCGTCG, the binding signal is -0.0711 E-score.

In the case of GAAGTCGA, the binding signal was -0.166 E-score.

Turning to AACGTTAT, the binding signal was -0.19 E-score.

Take AGCACGTG: the binding signal came out at 0.223 E-score.

Take GGGAAGCA: the binding signal was -0.144 E-score.

Regarding GGGACACC, the binding signal was determined as 0.478 E-score.

AAACTATG: the binding signal was -0.083 E-score.

For ATCGTATA, the binding signal is -0.0841 E-score.

Regarding CGTAAGCC, the binding signal was -0.0366 E-score.

In the case of AAATGCCC, the binding signal is -0.221 E-score.

Regarding CGCAGAAA, the binding signal was -0.216 E-score.

As for TACGGACA, the binding signal was found to be 0.168 E-score.

Take CTTGTAGA: the binding signal was -0.0594 E-score.

On to CACTTCAA, for which the binding signal was determined as 0.265 E-score.

For AATTTCTG, the binding signal is -0.231 E-score.

On to TGATTCAA, for which the binding signal was -0.0501 E-score.

Turning to ATAGCGTG, the binding signal is 0.159 E-score.

Turning to TCCCACGA, the binding signal is -0.0661 E-score.

Take CTAGGGCA: the binding signal was -0.164 E-score.

With TAATATTA, the binding signal is -0.0563 E-score.

As for GAGGCTCC, the binding signal was -0.113 E-score.

Turning to AAGCGTGG, the binding signal is -0.157 E-score.

With ACTCACCA, the binding signal amounted to 0.0861 E-score.

On to GTCGCTAA, for which the binding signal is -0.0759 E-score.

As for CTGGCAAC, the binding signal is -0.0059 E-score.

TCACTCCA: the binding signal is -0.0137 E-score.

With GTTTCTGA, the binding signal was -0.00644 E-score.

Consider ATTAATGA, for which the binding signal turned out to be 0.126 E-score.

Turning to AGTGACTA, the binding signal is -0.125 E-score.

As for CCTCACCA, the binding signal was 0.0115 E-score.

For TACAGAAA, the binding signal was -0.0992 E-score.

In the case of GACGTCTC, the binding signal was -0.147 E-score.

Consider AACAAATG, for which the binding signal is -0.224 E-score.

Turning to ATCATCAA, the binding signal was -0.264 E-score.

ATCGCCTA: the binding signal was -0.114 E-score.

Regarding ACCTCTTC, the binding signal is 0.103 E-score.

CCTAATCG: the binding signal was -0.0704 E-score.

In the case of GGCATCCC, the binding signal is 0.00919 E-score.

Take ATTCTGAG: the binding signal was -0.245 E-score.

Take GCTGGCTA: the binding signal was -0.198 E-score.

ACTTGAAA: the binding signal is -0.127 E-score.

Consider ACAAGGAC, for which the binding signal came out at 0.137 E-score.

Regarding CCTCAGAA, the binding signal is -0.0407 E-score.

In the case of ACCGGTAC, the binding signal was 0.031 E-score.

GGACGTCC: the binding signal was -0.357 E-score.

As for AAATCTGT, the binding signal is -0.23 E-score.

Turning to GGGGGGCA, the binding signal amounted to 0.0156 E-score.

CGTATTGA: the binding signal was -0.175 E-score.

For GAAGTCAC, the binding signal is -0.0711 E-score.

AGGTCAGC: the binding signal worked out at 0.0653 E-score.

Regarding AAGTGGCT, the binding signal is -0.287 E-score.

As to CCCCAACC, the binding signal is 0.0903 E-score.

Regarding CTCAAATC, the binding signal is -0.135 E-score.

With CCAATGAA, the binding signal is -0.231 E-score.

In the case of GGTGCAAC, the binding signal amounted to 0.272 E-score.

As for ACTCTTTG, the binding signal stood at 0.0647 E-score.

As to AAGAGTAC, the binding signal amounted to 0.109 E-score.

For the sequence AACTGTCT, the binding signal was -0.0999 E-score.

ATGAAGGC: the binding signal was -0.202 E-score.

As to AGTCAACT, the binding signal is 0.0111 E-score.

With CCCGCTGA, the binding signal was 0.159 E-score.

As to CCTCGCAA, the binding signal was -0.119 E-score.

For the sequence ACCCGAGG, the binding signal was determined as 0.136 E-score.

Consider ACGTTGGG, for which the binding signal is 0.123 E-score.

Turning to GATTAATA, the binding signal is 0.0533 E-score.

Regarding CTGCAATA, the binding signal was -0.176 E-score.

As for GCTCGGAC, the binding signal was -0.15 E-score.

Turning to GATGCACA, the binding signal was -0.0523 E-score.

In the case of ACCCCCGA, the binding signal came out at 0.298 E-score.

Regarding AACCCACA, the binding signal stood at 0.157 E-score.

With AAAAAGTG, the binding signal turned out to be 0.00342 E-score.

As for AATGCGTC, the binding signal was -0.251 E-score.

Take GCACTACA: the binding signal turned out to be 0.171 E-score.

In the case of AGCAGTCA, the binding signal was -0.165 E-score.

As for GACAGCCA, the binding signal is -0.0789 E-score.

For AATCATGG, the binding signal was -0.14 E-score.

In the case of CTTCCTAA, the binding signal is -0.171 E-score.

Turning to ACGTAGTG, the binding signal turned out to be 0.23 E-score.

On to AACTTAAC, for which the binding signal is -0.15 E-score.

TGGTGGAA: the binding signal was -0.0904 E-score.

Regarding CAAGTGTA, the binding signal is 0.392 E-score.

Consider GGCCGGAA, for which the binding signal is -0.098 E-score.

Consider AGTTTACG, for which the binding signal was -0.217 E-score.

ATTGAAGC: the binding signal was -0.0733 E-score.

CCCACCCG: the binding signal came out at 0.194 E-score.

For the sequence CAATCGTA, the binding signal is -0.123 E-score.

Turning to AAAGAGTC, the binding signal was -0.153 E-score.

For the sequence GCTACTAA, the binding signal came out at 0.0858 E-score.

Turning to CCAGTAGA, the binding signal was -0.0339 E-score.

For CCGGCACC, the binding signal stood at 0.123 E-score.

Turning to GACAACTA, the binding signal is -0.0873 E-score.

For ACATGGCC, the binding signal was -0.278 E-score.

In the case of CCCTGCCC, the binding signal came out at 0.081 E-score.

As to TCTATCAA, the binding signal is -0.148 E-score.

Turning to AACTGCTG, the binding signal is -0.116 E-score.

As for GCAAGTTA, the binding signal was -0.197 E-score.

As for ATGATAAG, the binding signal was 0.0198 E-score.

Turning to AACAATGC, the binding signal turned out to be 0.0978 E-score.

Turning to CTGCAAGA, the binding signal was -0.0938 E-score.

Turning to ACATAGGT, the binding signal was -0.0202 E-score.

On to AAAGCACG, for which the binding signal is -0.0624 E-score.

Turning to ACGTTATC, the binding signal was -0.0526 E-score.

With ACAGGAGA, the binding signal was 0.0329 E-score.

Consider AAGATTCT, for which the binding signal is -0.321 E-score.

Consider ATTAAATC, for which the binding signal is -0.0752 E-score.

For the sequence CACCCGCA, the binding signal is 0.271 E-score.

CGTGTTCC: the binding signal came out at 0.34 E-score.

Regarding CAGTCATA, the binding signal was -0.149 E-score.

Take CCGACAGG: the binding signal is -0.213 E-score.

Consider GCATTCTA, for which the binding signal was -0.17 E-score.

For the sequence AACCAGTG, the binding signal stood at 0.183 E-score.

Take GAGATACA: the binding signal worked out at 0.123 E-score.

As for AAGCAGGC, the binding signal is -0.135 E-score.

As to CTATGACC, the binding signal was -0.168 E-score.

For GCCGATCA, the binding signal is -0.0706 E-score.

Consider AATAGTCG, for which the binding signal was -0.0415 E-score.

For AATACATC, the binding signal is -0.0803 E-score.

For ACCCTGGG, the binding signal worked out at 0.238 E-score.

In the case of GATCATGC, the binding signal was -0.223 E-score.

Turning to ACAAGACT, the binding signal is -0.278 E-score.

Regarding CACTGTAC, the binding signal stood at 0.194 E-score.

Turning to CCTGGGAA, the binding signal is -0.0948 E-score.

Turning to AGCAGATG, the binding signal was -0.253 E-score.
